# Measured values from paper PMC12136788.
# The other results are listed elsewhere or left out.
# B1: chr17:6138058:6138059:+_ENSMUSG00000034377_ENSMUST00000152672|mus_hu|FALSE|FALSE (ssRNA)
# RNA: GGGAGUUCUACAGUCCGACGAUCAGUGCCAUAGAGGCUAGAAAGAAGGCCCCUUCACUCAAGAGGCAGAAUGUUCCAGCGCUCUUACAGUGGUCCCAGUGUUUGCCCUGGGUGAGUCUUAAAUCCUCUUGCUGACAAAACAGACAACAGAGGAUUGAGCAUCA
# B2: chr2:181286759:181286760:+_ENSMUSG00000000826_ENSMUST00000072334|mus_hu|FALSE|FALSE (ssRNA)
# RNA: GGGAGUUCUACAGUCCGACGAUCGCUGCACUAACAACAUAGAGAACUAGGAAAGUUCACAAACACUGAGCAGUAAUAUCUAAAGCAGUUUAAAAAUAAAGCCAAAAGGAAGACAAAAAAAUCCCACGUCACUGAGUGGAGACACAACAGAGGAUUGAGCAUCA
# B3: chrX:69798090:69798091:-_ENSMUSG00000031343_ENSMUST00000055966|mus_mus|mus_mus_mus_hu_False|58_58 (ssRNA)
# RNA: GGGAGUUCUACAGUCCGACGAUCAAGUCCCCGGGUUCUUGUCGUCUUGAUUCCCCUUGACCAGUGGUUCCAGGGAGAAUACUAAUCAGGAAAAGAAUCCCAAGGCUGGUCAUGUAACAGUGACUUGUUUGUGUGAUUAUCAUCCAACAGAGGAUUGAGCAUCA
# B4: 3559265_3561159_1031_CDS_ENSMUSG00000021218_ENSMUST00000059515|mouse|control|control (ssRNA)
# RNA: GGGAGUUCUACAGUCCGACGAUCAUCUUUUACAUAGCUGGGAUCACAGAUGAGCUGUUUACAGCGAGCAAUCUCUCCUUCGGAUUUUACACCAACCACUUUUCCAUUUUGCACAAUGAUUUCUUCAAUUGGUUUAUUCAACAUCAACAGAGGAUUGAGCAUCA
# B5: chrX:20248820:20248821:+_ENSMUSG00000001924_ENSMUST00000001989|mus_mus|FALSE|FALSE (ssRNA)
# RNA: GGGAGUUCUACAGUCCGACGAUCGGCAAAGUCAGUCAUCACAAAGUCAGGCUCUACCAGUGAUGCUGGCAAGGAUUUAAAACUAAUCUUUUUCGGUACUUUGACCUGACUGACGAUGCCUCCACGGAUGUAGUCAGAGAAGUUCAACAGAGGAUUGAGCAUCA
# B6: chrX:71549400:71549401:+_ENSMUSG00000019087_ENSMUST00000019231|mus_hu|mus_mus_mus_hu_False|1_48 (ssRNA)
# RNA: GGGAGUUCUACAGUCCGACGAUCGCAGUAGGAAGAGGGAAGCUCUUCAGUCCAGUGCGCUGCAGGGUGGGAAAGCAACAACACGGAACCAAUACUCCCCUCAACCCCCCCACUGGCACAGGGUCACACAAUCUGGGAAGUGAUCAACAGAGGAUUGAGCAUCA
# B7: 98286892_98287012_1828_CDS_ENSMUSG00000036550_ENSMUST00000098473|mouse|control|control (ssRNA)
# RNA: GGGAGUUCUACAGUCCGACGAUCCCCAUGCCAUGCAUAGUGCAAAAUAAUGGCAGAGUUAGGAUGGUUUCCAAGGAAAAUUGGCAUCAAAGUAGAGAUGAGUUCAUGGCGUAGGGUGUGCCAGGAAGUGUUGAUUUGAAGUAACAACAGAGGAUUGAGCAUCA
# B8: chr1:39494447:39494448:+_ENSG00000168653_ENST00000372967|hu_mus|hu_hu_hu_mus_False|38_48 (ssRNA)
# RNA: GGGAGUUCUACAGUCCGACGAUCGCACCGAGCGGCGUUCUUAUAGGGCUGUUCUGCGCUUAGGAACAUAAAGUGCCGGUCCAGGCUAAGGCCGAACCUUUUCUGGAUGUCAAGGAAAGGCAUGGCUCUGCAGUGCCCUUGUCACAACAGAGGAUUGAGCAUCA
# B9: chr5:31258465:31258466:-_ENSMUSG00000045302_ENSMUST00000155946|mus_mus|motif|central (ssRNA)
# RNA: GGGAGUUCUACAGUCCGACGAUCCCAUGGGCCUCCUUCACAUAAUACAGGCGCUGGGGGAGAAAGCAGUGAGGAAAGCCGGGUUGGAAGCUACCUUCGGGGAAACACGCUCCACAGUCCUAACAGGCUUCCCCUGUGGACUGGCAACAGAGGAUUGAGCAUCA
# B10: chr10:33190432:33190433:-_ENSG00000150093_ENST00000302278|hu_mus|hu_hu_hu_mus_True|38_108 (ssRNA)
# RNA: GGGAGUUCUACAGUCCGACGAUCUACAUUUUCAAAACCUGCAUGUGAAUAAAACCCUGGCCACAGAGCCCCAAAACUACCCUACUGUGACUAAGAUAAUUGCUACUUGAGCUUGGUGUUGCAAAAUCCGCCUGAGUAGGAUUCCAACAGAGGAUUGAGCAUCA
# B11: 32074226_32074800_3202_3pUTR_ENSMUSG00000039262_ENSMUST00000036691|mouse|control|control (ssRNA)
# RNA: GGGAGUUCUACAGUCCGACGAUCCAGACGACUCCCGAGACUCAGCACUCAAGUCAACGCCACUAUCUCCCUGGCUGCUCUUAAACCCCUGCUCUGAGGUGCCAGGCUCAGUACUGCUGAAGGCAGUGACAGCUGUCCUCCAUGCAACAGAGGAUUGAGCAUCA
# B12: chr2:157385914:157385915:+_ENSMUSG00000067786_ENSMUST00000109526|mus_mus|FALSE|FALSE (ssRNA)
# RNA: GGGAGUUCUACAGUCCGACGAUCCAGCCGAUGAUGAGCAGUUCUGCCGAGGCUGCUGCCACUGCGGCCAUGGUUCCGAAAGUGGGUGGGUGGUCGAGAGCAAGGGUUCGCCGAGGUCUACUGGUCUCGGAGUCCGCUGCUGGGCAACAGAGGAUUGAGCAUCA
# B13: chr6:114281168:114281169:-_ENSG00000196591_ENST00000368632|hu_hu|hu_hu_hu_mus_True|18_88 (ssRNA)
# RNA: GGGAGUUCUACAGUCCGACGAUCUUCCAUUUUUCGGUAUAAACCAUAAUUUAACAGCAAGUUAUGAGUCAUCCGGAUUCUAUGAGGCUUCAUGGGAUGACCCUGGCCAUAAUAAUAAUUUCCAAUAUCACCAUCAUAGUAGUACAACAGAGGAUUGAGCAUCA
# B14: chr18:54278284:54278285:-_ENSG00000091164_ENST00000590954|hu_mus|FALSE|FALSE (ssRNA)
# RNA: GGGAGUUCUACAGUCCGACGAUCGAAGUCAUUCAUAUUUGUUGCCUGGACUGGAGUACCAAUGAAAGUAAAAUAUGAAAUUCUCGUUGUUUCUUCUUCUCCUUGAUUAGACUGAACAAAUAAAGUUACACUGUUGACAUUCUGCAACAGAGGAUUGAGCAUCA
# B15: chr4:57314706:57314707:+_ENSG00000128050_ENST00000264221|hu_mus|FALSE|FALSE (ssRNA)
# RNA: GGGAGUUCUACAGUCCGACGAUCCAGAAUUUCAAAAAUAGCUUGUGUGGCAUGACUCAUGAUGUCCACUUCAGUCUGCCCUAUAACAAGGCCAGCAAAACAGAAUUUUGCAGCAAUGAGUUGCUCCUCAGACCACUGUGGAUCCAACAGAGGAUUGAGCAUCA
# B16: 107912119_107912325_1280_3pUTR_ENSMUSG00000000001_ENSMUST00000000001|mouse|control|control (ssRNA)
# RNA: GGGAGUUCUACAGUCCGACGAUCGGAGAGCGCUAGCUAAGAUUCUGCGUGUUGCUGCCAUUCCUUGGUCCUGUCAUGCGUGCUGCUGACCCAAGAGACAGUAGAUGACAUCUGGUCUCAACACUCCUCCCUGUAAUAGCUUUUCAACAGAGGAUUGAGCAUCA
# B17: chr12:72996793:72996794:+_ENSMUSG00000034574_ENSMUST00000085299|mus_mus|FALSE|FALSE (ssRNA)
# RNA: GGGAGUUCUACAGUCCGACGAUCAGGGGGCAUGGGCAGCGCCGGCUCCAUUGUCUGAAGUGCAAAGUUGCUAUCAUUCCUAAGCCGAUAUGUGAUUUCUGGAUGGUCAUUGUUUCGGAAACAGCAAAAGAUAAAUGAAAUCCCCAACAGAGGAUUGAGCAUCA
# B18: chrX:48760955:48760956:-_ENSG00000102100_ENST00000376521|hu_hu|motif|central (ssRNA)
# RNA: GGGAGUUCUACAGUCCGACGAUCUAAAAAACAAACCAAAAAAUCAGAACAAAUUAAUCAAAAAUAAAGAUCCAAUGGCUCGGUUUACAUAUAGCAAAGACAGCCCAGGCAUCUUCCAUGCACACACACACCCCGCCCCGAUACCAACAGAGGAUUGAGCAUCA
# B19: chr4:34758383:34758384:-_ENSMUSG00000039967_ENSMUST00000047950|mus_mus|motif|central (ssRNA)
# RNA: GGGAGUUCUACAGUCCGACGAUCUUCAUCAUCUGAACCAUCGUUGUCAUUAAACACUAUGAAAUCUGUUGAAUAAAGACGGUUCUUUUUUAUGGGUCGCUGUUCCUGUUUAGCCACAGUAUUAAUAUUAGUCUUUUGAUUUUCCAACAGAGGAUUGAGCAUCA
# B20: chr14:78183846:78183847:+_ENSG00000119705_ENST00000557342|hu_hu|hu_hu_hu_mus_False|48_78 (ssRNA)
# RNA: GGGAGUUCUACAGUCCGACGAUCUCUCAGAAAUCUUUCUUCAUCAGAUGUUUGAGCUGUUUGCGGAGCCUUUGCUCUUUGAGCUUGAACCUGGACCUAUGGGAGGGAAAGCACUGUCAGAAAAGGUAAUUUUUUUUUUAAAGACAACAGAGGAUUGAGCAUCA
# B21: chr14:17255229:17255230:+_ENSMUSG00000017485_ENSMUST00000017629|mus_mus|FALSE|FALSE (ssRNA)
# RNA: GGGAGUUCUACAGUCCGACGAUCAACAAAUUCAUCUUCCCCAUCAUUUGUUAUGGGAGAUGCUUUAACUUUCAGUUCUUCUAAAUCAUUACUGUCAUCAGCAGCAGCAGCAUCAUCAUCCUCCUCUUCUGAGAAAUCAAAAGUCAACAGAGGAUUGAGCAUCA
# B22: chr14:57741442:57741443:+_ENSG00000053770_ENST00000261558|hu_hu|FALSE|FALSE (ssRNA)
# RNA: GGGAGUUCUACAGUCCGACGAUCAGUUUUCCAAGCUGGCUGUUUCUGUGGCUGAGUCACAGAUGCAAAAUUGGUAUUAUCUAAUGAAUUCUGUAAGUUGGCAUCUAAUAAAGUACCAAAUGGACAAGCCUGCAGAAGCAAGUCCAACAGAGGAUUGAGCAUCA
# Target: T1, UNK ZnF1-3 (human, UniProt Q9C0B0 31-174)
# T1 sequence: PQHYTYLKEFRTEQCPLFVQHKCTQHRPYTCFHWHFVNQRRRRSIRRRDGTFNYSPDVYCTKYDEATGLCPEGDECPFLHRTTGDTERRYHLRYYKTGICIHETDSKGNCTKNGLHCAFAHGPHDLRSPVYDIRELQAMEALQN
# Assay: nsRBNS (natural sequence RNA bind-n-seq); RBNS binding buffer (assumed for nsRBNS): 25 mM Tris pH 7.5, 150 mM KCl, 3 mM MgCl2, 0.01% Triton X-100, 500 ug/ml BSA, 20 U/ml SUPERase-In, 4 C; UNK is unkempt and MSI1 is Musashi-1; names of the RNAs are library labels; protein concentration not given here; high values mean tight binding
row,Binder,binding signal
1,B1,0.787 enrichment R
2,B2,2.6 enrichment R
3,B3,0.583 enrichment R
4,B4,1.1 enrichment R
5,B5,0.66 enrichment R
6,B6,1.41 enrichment R
7,B7,2.83 enrichment R
8,B8,0.763 enrichment R
9,B9,1.33 enrichment R
10,B10,0.923 enrichment R
11,B11,1.01 enrichment R
12,B12,0.894 enrichment R
13,B13,0.835 enrichment R
14,B14,1.05 enrichment R
15,B15,0.918 enrichment R
16,B16,0.634 enrichment R
17,B17,1.06 enrichment R
18,B18,2.13 enrichment R
19,B19,0.474 enrichment R
20,B20,1.75 enrichment R
21,B21,1.29 enrichment R
22,B22,0.929 enrichment R
